The structures appear in SMILES notation. Some of the results follow.

In this experiment the test system is T1, C. trachomatis L2/434/Bu expressing GFP (CTL2-GFP).
T1 construct: L2/434/Bu GFP intracellular growth in HeLa cells
The arrangement: species or system HeLa; C. trachomatis total inclusion area by high-content imaging, normalised to DMSO. The conditions noted are these: total inclusion area; 28.5 h, 10 µM; inhibitor. The procedure, abridged:
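Post-fluorescence-read fixation, DNA staining with Hoechst and high-content imaging; GFP inclusion area and number per well, and nuclei counts, used as proxies for bacterial growth and host viability.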
For `O=C(O)c1sccc1S(=O)(=O)NCc1ccc(COCC(F)(F)F)cc1` [CBK296706], the “% of control remaining” value is 85.4828. Next, `Cc1nc2c(C(=O)NC3CCOCC3)cnn2c(C)c1Cc1cccc(Br)c1` [CBK165011]: 80.9232. In the case of `O=S1(=O)CCN(Cc2cn(-c3ccccc3)nn2)CC1` [CBK113103], the “% of control remaining” value was determined as 92.5514. Next, `Cc1cc2c(cc3c(=O)n(CC(=O)NCC4CC4)nc(C)n32)s1` [CBK284097]: 94.2116; `O=C(N[C@H]1CCN2C(=O)c3cc(-c4ccsc4)ccc3NC(=O)[C@@H]2C1)c1cccs1` [CBK289563]: 83.2461; `CCN(CC)C(=O)CCn1c(-c2cccnc2)cc2cccnc21` [CBK282160]: 93.4099. Take `COc1cccc(OCc2ccc(Cn3ccn(C(=O)CCCC(C)C)c3=O)cc2)c1` [CBK106638]: the “% of control remaining” value is 78.3099. Next, `COc1ccc(N2CCN(c3nc(OC)nc(OC)n3)CC2)cc1` [CBK264245]: 138.319. Next, `COc1ccccc1-c1cn2ccnc2c(NCc2ccccc2)n1` [CBK037372]: 108.692. Next, `O=C(CSc1nc(-c2ccc(F)cc2)cc(C(F)(F)F)n1)NCCN1CCOCC1` [CBK266121]: 141.192. For `O=C(CN1C(=O)c2ccccc2S1(=O)=O)Nc1ccccc1-c1ccccc1` [CBK266390], the “% of control remaining” value turned out to be 128.235. With `CN(C)c1cccc(-c2cc(N3CCN(c4ccccn4)CC3)ncn2)c1` [CBK037825], the “% of control remaining” value is 151.401. Next, `O=S(=O)(c1ccc2ccccc2c1)c1cnns1` [CBK001887]: 34.9423. Next, `CCCCOC(=O)c1ccc(NC(=O)c2c(Cl)cccc2Cl)cc1` [CBK263664]: 84.2136; `Cc1nc2cc(-c3nccn3C)nn2c(N2CCN(c3ccc4c(c3)OCCO4)CC2)c1C` [CBK286186]: 95.5588; `CCCOc1c(Cl)cc(/C=C2\N=C(c3ccc(OC)cc3)OC2=O)cc1OCC` [CBK098846]: 109.781. Next, `CCN(CC)C(=O)c1cccc(NS(=O)(=O)c2cccc(C(=O)O)c2)c1` [CBK296943]: 96.306.

With `CCc1ccc(NC(=O)CN(CCO)Cc2cc(Br)ccc2F)cc1` [CBK305968], the “% of control remaining” value is 69.3567. Next, `CC(C)(C)c1ccc(OCc2nnc(Sc3nc4ccc([N+](=O)[O-])cc4s3)n2-c2ccccc2)cc1` [CBK263366]: 102.61; `N#CC(/N=C/c1ccc(C#Cc2ccccc2)cc1)=C(C#N)/N=C/c1ccc(C#Cc2ccccc2)cc1` [CBK262066]: 100.568. Next, `COc1ccc(OCCN2CCC3(CC2)CN(C(=O)CO)c2ccccc23)cc1` [CBK131512]: 84.8255; `Cn1c(O)c(CCNc2cc([C@H]3C[C@@H](N)C3)nc(C3CC3)n2)cnc1=O` [CBK306819]: 84.7571. Next, `Cc1ccc(OCc2occc2C(=O)NCCn2ccnc2C)cc1` [CBK306725]: 48.3679.

In the case of `COc1ccc2ncc(C#N)c(Nc3ccc(OC)c(OC)c3)c2c1` [CBK287808], the “% of control remaining” value was found to be 120.351. Next, `NS(=O)(=O)c1ccc(Nc2nc3nonc3nc2Nc2ccc(S(N)(=O)=O)cc2)cc1` [CBK261110]: 91.4519; `CC(=O)c1ccc(-c2nc(NC(=O)c3cccc([N+](=O)[O-])c3)cnc2-c2ccc(F)c(Cl)c2)s1` [CBK036816]: 70.076; `COc1cccc(C(=O)NNC(=O)Nc2ccccc2)c1` [CBK261608]: 91.2327. `COc1ccc(CCN2CNc3c(c(=O)n(C)c(=O)n3C)C2)cc1OC` [CBK074818]: the “% of control remaining” value came to 101.7. Regarding `CC1(C)CC(=O)Nc2ccccc2S1` [CBK025483], the “% of control remaining” value was 61.0813.

For `CCOC(=O)c1ccnc(-c2cc3ccccc3o2)c1` [CBK149253], the “% of control remaining” value stood at 80.7401. Next, `O=C(CSc1n[nH]c(=O)n1C1CCCCC1)NCc1ccc(N2CCCC2=O)cc1` [CBK299785]: 72.963; `Cc1c(Br)c([N+](=O)[O-])nn1C(C)C(=O)NCc1ccco1` (centres unmarked) [CBK269108]: 79.7536; `CC(=O)c1ccc(NC(=O)N[C@H]2CCN3C(=O)[C@H]4CCCN4C(=O)[C@H]23)cc1` [CBK289228]: 131.385. Next, `COc1ccccc1OCc1ccccc1` [CBK002814]: 69.8296; `CC(=O)Cc1nc2ccccc2nc1O` [CBK089805]: 42.4923; `CC(C)n1c(=O)n(CC(=O)N2CCc3ccccc32)c2cccnc21` [CBK283855]: 79.4021.

In the case of `COc1cccc(CN2CCN(C(=O)c3ccco3)CC2)c1OC` [CBK074380], the “% of control remaining” value worked out at 81.7049. Next, `CCOC(=O)c1c(NC(=O)CC2Sc3ccccc3NC2=O)sc(C)c1C` (centres unmarked) [CBK263349]: 101.595; `O=C(c1ccccc1F)N1C[C@H](c2ccsc2)[C@H]2CN(Cc3cccc(F)c3)CC[C@H]21` [CBK285660]: 84.5515; `Cc1ccccc1-c1nnc2n1CCCN2` [CBK200089]: 104.24. Next, `Nc1nc2c([C@@H]3O[C@H](CO)[C@H](O)C3O)c[nH]c2c(=O)[nH]1` (some centres unmarked) [CBK201292]: 81.0407; `CC1CCN(Cc2ccc(-c3nnn(CC(=O)NCc4ccc(NS(C)(=O)=O)cc4)n3)cc2)CC1` [CBK144588C]: 86.0233. For the compound `COc1ccc(-c2ccc(C#N)c(SCc3ccncc3)n2)cc1` [CBK269883], the “% of control remaining” value is given as 73.1644. Next, `C=C(C)Cn1c(SC(C)C)nnc1-c1ccccc1Cl` [CBK200079]: 70.4131. Next, `COc1ccc(CC(=O)Nc2nc(OC)cnc2/C=C\c2ccccc2)cc1` [CBK145224]: 110.762. Next, `CCCN(CC1CC1)C1CCc2cccc(C(N)=O)c2C1` (centres unmarked) [CBK016579]: 69.4091. With `CCCCN(C)c1nccnc1-c1ccncc1` [CBK037655], the “% of control remaining” value stood at 100.6. Next, `CCOc1ccc(S(=O)(=O)N2CCN(CCCC#N)CC2)c2cccnc12` [CBK063046]: 80.5643; `O=[N+]([O-])c1cc(C(F)(F)F)ccc1NCCCNc1nc(N2CCOCC2)nc2ccccc12` [CBK266567]: 89.0497; `CCc1c(C)nc2ccccc2c1SCCOC(=O)Nc1ccccc1` [CBK155466T]: 95.1194.
